The labels stand for the following.
B1: LINE1-mini (parent)
chain: GGCAGAGCUCAACACAGCGUGGCAAAGUGGCUGUGGCUAGACUGCC

Read counts are not given, so values of variants with three or more changes are uncertain.

Our source for the self-cleavage values is the RNAGym collection of RNA variant scans (doi:10.7554/elife.90254).

The variants in this data set derive from B1. The experiment in a line: self-cleavage, relative activity (ratio to wild type); higher = more cleavage; in vitro, sequencing; the parent is a self-cleaving ribozyme.
As for GGCAGAGCUCAACACAGCGUCGCAAAGUGGGCGUGGCUAGACUGCC [G21C C31G U32C], the self-cleavage is 0.1.
Then GGCAGAGCUCAACACAGCGUCGCAAAGUGGCUCUGGCUAGGCUGCC [G21C G33C A41G], with 0.05; and GGCAGAGCUCAACACAGCGUAGCAAAGUGGCUGACGCUAGACUGCC [G21A U34A G35C], with 0.19; and GGCAGAGCUCAACACAGCGUCGCAAAGUGGGUGUGGCUAUACUGCC [G21C C31G G40U], with 0.02.
GGCAGAGCUCAACACAGCGUCGCAAAGUGGCUGUCGCUUGACUGCC [G21C G35C A39U]: the self-cleavage came out at 0.08.
Take GGCAGAGCUCAACACAGCGUCGCUAAGUGGCUUUGGAUAGACUGCC [G21C A24U G33U C37A]: the self-cleavage came out at 0.02.
Turning to GGCAGAGCUCAACACAGCGUUGCGAAGUGGCUAUUUCUAGACUGCC [G21U A24G G33A G35U G36U], the self-cleavage came to 0.22.
Take GGCAGAGCUCAACACAGCGUAGCAAAGUGGCUGUAUCUAGACUGCC [G21A G35A G36U]: the self-cleavage was determined as 0.28.
Consider GGCAGAGCUCAACACAGCGUCGCAAAGUGGGUGUGUCUAGACUGCC [G21C C31G G36U], for which the self-cleavage was determined as 0.09.
In the case of GGCAGAGCUCAACACAGCGUCCCAAAGGGGCUGUGGCUAGACUGCC [G21C G22C U28G], the self-cleavage is 0.07.
GGCAGAGCUCAACACAGCGUCGCAAAGAAGCUGUGGCUAGACUGCC [G21C U28A G29A]: the self-cleavage was determined as 0.41.
For the variant GGCAGAGCUCAACACAGCGUCGCAAUGUGGCUGUGGCCAGACUUCC [G21C A26U U38C G44U], the self-cleavage came to 0.06.
Take GGCAGAGCUCAACACAGCGUCGCAAAGUGGCUGUGCCUCGACUAAC [G21C G36C A39C G44A C45A]: the self-cleavage was determined as 0.03.
As to GGCAGAGCUCAACACAGCGUCGCAAAGUGGCUGUGGCUAUAGUGCC [G21C G40U C42G], the self-cleavage came out at 0.05.
In the case of GGCAGAGCUCAACACAGCGUCGCAAAGUGGAUGAGACUAGACUGCC [G21C C31A U34A G36A], the self-cleavage amounted to 0.03.
As to GGCAGAGCUCAACACAGCGUCGCUAAGUGGCUGUGGCUUAACUGCC [G21C A24U A39U G40A], the self-cleavage amounted to 0.07.
Regarding GGCAGAGCUCAACACAGCGUAGCAAAGUGGCUGUGGCAAGACUGCA [G21A U38A C46A], the self-cleavage worked out at 0.39.
Then GGCAGAGCUCAACACAGCGUAGCAAAGCGACUGUGGAUAGACUGCC [G21A U28C G30A C37A], with 0.07; and GGCAGAGCUCAACACAGCGUAGCAAAGUGGCCGUGGCUUGUCUGCC [G21A U32C A39U A41U], with 0.16; and GGCAGAGCUCAACACAGCGUCGAAAAGUGGCUGUGGCGAGACUGCC [G21C C23A U38G], with 0.
Then GGCAGAGCUCAACACAGCGUAGCAAAGUGGCUGUCGCUAGAGUGCC [G21A G35C C42G], with 0.04; and GGCAGAGCUCAACACAGCGUUGCAACGUGGCUGUGGCUAGUCUGCC [G21U A26C A41U], with 0.39; and GGCAGAGCUCAACACAGCGUAGCAAAGGGGGUGUGGCAAGACUGCC [G21A U28G C31G U38A], with 0.02.
Regarding GGCAGAGCUCAACACAGCGUAGCAAAGAGUUUGUGGCUAGACUGCC [G21A U28A G30U C31U], the self-cleavage turned out to be 1.04.
Take GGCAGAGCUCAACACAGCGUCGGAAACUGGCUGUGGCUAGACUCCC [G21C C23G G27C G44C]: the self-cleavage was 0.14.
Turning to GGCAGAGCUCAACACAGCGUAGCAAAGUGGCUGUGGCUAUAGUGGC [G21A G40U C42G C45G], the self-cleavage is 0.01.
For GGCAGAGCUCAACACAGCGUAGCAAAGUGGCUGUGACUAGACUGGC [G21A G36A C45G], the self-cleavage was determined as 0.09.
Then GGCAGAGCUCAACACAGCGUCGCAAAGUGGCUGUGGCUACACUGAC [G21C G40C C45A], with 0.11; and GGCAGAGCUCAACACAGCGUUGCAACGUGGCUGUGGCUAGAGUGUC [G21U A26C C42G C45U], with 0.07; and GGCAGAGCUCAACACAGCGUCGCACAGUGGCUGUGGGUAGACUGCC [G21C A25C C37G], with 0.01.
Then GGCAGAGCUCAACACAGCGUUGCAACGUGGAUGUGGCUUGAAUGCC [G21U A26C C31A A39U C42A], with 0.05.
Turning to GGCAGAGCUCAACACAGCGUUGCAUAAUGGCUGUGGCUAGACUGCC [G21U A25U G27A], the self-cleavage is 0.79.
GGCAGAGCUCAACACAGCGUUGCAUAGUGGCUGUGGCUACACUGUC [G21U A25U G40C C45U]: the self-cleavage came to 0.33.
Then GGCAGAGCUCAACACAGCGUCGCUAAGUGGCGGUGGCCAGCCGGCC [G21C A24U U32G U38C A41C U43G], with 0.01; and GGCAGAGCUCAACACAGCGUCGCAAAGAUGCUGUCGCUAGACUGCC [G21C U28A G29U G35C], with 0.03; and GGCAGAGCUCAACACAGCGUCGCAAAGUGGCUGUGGCACGACUGCC [G21C U38A A39C], with 0.32.
Then GGCAGAGCUCAACACAGCGUCGCAAAGUGGCUGGACCUAGACUGCC [G21C U34G G35A G36C], with 0.06; and GGCAGAGCUCAACACAGCGUCGCAAAGUGGAGGUGGCUAGACUGCC [G21C C31A U32G], with 0.1; and GGCAGAGCUCAACACAGCGUCGAAAAGUGGCUGUAGCUAGACUGCC [G21C C23A G35A], with 0.39.
Consider GGCAGAGCUCAACACAGCGUAGCAAAGUGGCUGCGGCUAGUAUCCC [G21A U34C A41U C42A G44C], for which the self-cleavage is 0.05.
Consider GGCAGAGCUCAACACAGCGUCGCAAAGUGGCUGUUACUAGACUGCC [G21C G35U G36A], for which the self-cleavage amounted to 0.26.
In the case of GGCAGAGCUCAACACAGCGUCGGAAACUGGCUGUGGCUAGACUGCU [G21C C23G G27C C46U], the self-cleavage amounted to 2.06.
Then GGCAGAGCUCAACACAGCGUCGCACAGUGGCUGUGGCUAGAUUGCC [G21C A25C C42U], with 0.17.
With GGCAGAGCUCAACACAGCGUCGCAAAGUGGCUGGGGCUAGACUGCG [G21C U34G C46G], the self-cleavage turned out to be 0.14.
On to GGCAGAGCUCAACACAGCGUCGCAAAGUGCCUGUGGCUAGAAUGCC [G21C G30C C42A], for which the self-cleavage is 0.19.
Regarding GGCAGAGCUCAACACAGCGUAGCAAAGUGGCUGUGACGAGACUGCC [G21A G36A U38G], the self-cleavage was 0.03.
Consider GGCAGAGCUCAACACAGCGUCGCUUAGUGGCUGUGGCUAAACUGCC [G21C A24U A25U G40A], for which the self-cleavage turned out to be 0.07.
For GGCAGAGCUCAACACAGCGUCGCAAAUUAGCUGUGGCUAGACUGCC [G21C G27U G29A], the self-cleavage came out at 1.37.
As to GGCAGAGCUCAACACAGCGUAGCAAAGCGGGUGUGGCUAGACUGCC [G21A U28C C31G], the self-cleavage was 0.08.
Then GGCAGAGCUCAACACAGCGUCGCAAAGUUUCUGUGGCUAGACUGCC [G21C G29U G30U], with 0.39; and GGCAGAGCUCAACACAGCGUCGCAAAUUGACUGAGGCUAGACUGCC [G21C G27U G30A U34A], with 0.07; and GGCAGAGCUCAACACAGCGUCGCAAAGUGGCUGUUGCUAGACUGCG [G21C G35U C46G], with 0.07.
For GGCAGAGCUCAACACAGCGUCGGAAAGUGGUUGUGGCUAGGCUUCC [G21C C23G C31U A41G G44U], the self-cleavage came to 0.01.
Turning to GGCAGAGCUCAACACAGCGUCGCAAAGUGGGGGUGGAUAGACUGUC [G21C C31G U32G C37A C45U], the self-cleavage amounted to 0.01.
For GGCAGAGCUCAACACAGCGUCGCAAAGUGACUGUGGCUAGACUGGC [G21C G30A C45G], the self-cleavage stood at 0.14.
GGCAGAGCUCAACACAGCGUCUCAAGGUGGCUGUGGCUAGACUUCC [G21C G22U A26G G44U]: the self-cleavage was 0.32.
